{
  "source": "PubChem BioAssay AID1345082",
  "about": "(National Center for Advancing Translational Sciences (NCATS), 2018)",
  "note": "Several values for one entry are separate records, joined by “and”; a condition that tells them apart may be missing. Equal values may be shown once. In all, about 94,000 compounds went through this assay and about 4,000 (4.3%) were called active. The inconclusive results got no clear call from the source; some entries with a clear call stand among them for comparison. Calls follow the shape of the dose curve; as a rule, active = well fitted inhibition curve with a large enough effect; inconclusive = small, poorly fitted or top-dose-only effect; inactive = no such curve, though single readings can be large or run the other way. Potencies of inconclusive entries are doubtful fits and often do not repeat. Potency is read from the fitted curve at half-maximal effect; tags tell the direction and shape of the fitted curve.",
  "data": [
    {"test": "Cytotoxic Profiling in NIH 3T3 Cell Line of Diverse Libraries Using Quantitative High-Throughput Screening; also: nearly all actives have a fitted effect of over 55% in size", "conditions": "NIH 3T3 viability, CellTiter-Glo ATP luminescence, 48-72 h; series mostly up to 96.7 µM", "method_in_brief": "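Luminescent ATP readout (CellTiter-Glo, 10 min RT) after 48 or 72 hr compound exposure of NIH 3T3 cells seeded at 400 cells/well in 1536-well format; quantitative HTS.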", "values": [
      {"smiles": "COc1ccc(C2(C(=O)NC(C)CCc3ccccc3)CCOCC2)cc1", "note": "(stereo unspecified)", "Potency": "inconclusive: 50.1 µM [inhibitor, partial curve, poor fit]"},
      {"smiles": "COc1ccc(C2Cn3cnc(C(=O)N4CCC(C(=O)Nc5cccc(Cl)c5)CC4)c3CO2)cc1", "note": "(stereo unspecified)", "Potency": "inactive"},
      {"smiles": "Cc1noc(-c2cccc(F)c2)c1C(=O)NCc1ccc(Cl)cc1", "Potency": "inconclusive: 39.8 µM [inhibitor, partial curve]"},
      {"smiles": "Clc1ccc(-c2cnc3n2C[C@H](CNC2CCCC2)OC3)cc1", "Potency": "inconclusive: 79.4 µM [inhibitor, partial curve, poor fit]"},
      {"smiles": "CC1(c2noc(-c3ccccc3)n2)CCN(C(=O)CCc2cc(Cl)no2)CC1", "Potency": "inconclusive: 44.7 µM [inhibitor, partial curve, poor fit]"},
      {"smiles": "CC1(C(=O)NCc2ccccc2)COCc2cnc(Nc3ccccc3)nc21", "note": "(stereo unspecified)", "Potency": "inconclusive: 79.4 µM [inhibitor, partial curve]"},
      {"smiles": "COc1ccc(Cc2ncc3c(n2)CN(C(=O)c2ccc(Cl)c(C)c2)C3)cc1", "Potency": "inconclusive: 28.2 µM [inhibitor, full curve]"},
      {"smiles": "CC[C@@]1(C(=O)O)C[C@H](C(=O)N(C)CCOC)[C@H](c2ccc(OC)cc2)N1C", "Potency": "inconclusive: 50.1 µM [inhibitor, partial curve, poor fit]"},
      {"smiles": "COc1ccccc1-n1c(=O)c(C(=O)N2CCC(Cc3ccccc3)CC2)nc2cccnc21", "Potency": "inactive"},
      {"smiles": "C[S+](=O)([O-])c1ccc(-c2cc(C(=O)NCc3ccc(F)cc3)nn3cccc23)cc1", "Potency": "inconclusive: 28.2 µM [inhibitor, partial curve, poor fit]"},
      {"smiles": "COc1ccccc1CN1CCNc2cc(-c3ccnc(C)c3)ncc2C1", "Potency": "inconclusive: 56.2 µM [inhibitor, partial curve, poor fit]"},
      {"smiles": "COCCN1C(=O)N(C)C(=O)C12CCN(Cc1ccc(C(=O)OC)cc1)C2", "note": "(stereo unspecified)", "Potency": "inactive"},
      {"smiles": "CCc1nc2cc(N3CCC(C(=O)N4CCN(C)CC4)CC3)cnc2nc1CC", "Potency": "inconclusive: 70.8 µM [inhibitor, single point]"},
      {"smiles": "Cc1ccc(-c2cccc(CN3CCCC3C(=O)N3CCOCC3)c2)cc1Cl", "note": "(stereo unspecified)", "Potency": "inconclusive: 44.7 µM [inhibitor, partial curve, poor fit]"},
      {"smiles": "O=C(NCCc1nc2c(s1)CCCC2)C1NCCc2[nH]cnc21", "note": "(stereo unspecified)", "Potency": "inconclusive: 89.1 µM [inhibitor, partial curve, poor fit]"},
      {"smiles": "Cc1noc2c(-c3cccc(O)c3)cc(-c3ccccc3)nc12", "Potency": "active: 28.2 µM"},
      {"smiles": "O=C1CCn2nnc(CNc3ccc(OC(F)(F)F)cc3)c2CN1Cc1ccccc1", "Potency": "inconclusive: 79.4 µM [inhibitor, partial curve]"},
      {"smiles": "COc1cccc(CC(=O)N2CCC3(CC2)N=C(c2ccc(C)cc2)NO3)c1", "Potency": "inconclusive: 44.7 µM [inhibitor, partial curve, poor fit]"},
      {"smiles": "CC1=C[C@@H](CNC(=O)N2CCOCC2)[C@H](C(C)C)C[C@H]1Cc1nc2ccccc2[nH]1", "Potency": "inconclusive: 112 µM [inhibitor, partial curve, poor fit]"},
      {"smiles": "Cc1ccc(C)c(OCC(=O)c2ccc3c(c2)N(CCCC(=O)NC2CCCCC2)C(=O)CO3)c1", "Potency": "inconclusive: 50.1 µM [inhibitor, partial curve, poor fit]"},
      {"smiles": "CC(C)(Oc1nn(CCN2CCOCC2)c2ccccc12)C(=O)NCc1ccccc1", "Potency": "inactive"},
      {"smiles": "Cc1ccc(C(=O)N2CC(c3noc(COc4ccccc4C)n3)C2)cn1", "Potency": "inactive"},
      {"smiles": "COCCN1CCC2(C1)CN(C)c1ccc(C(=O)Nc3ccc(OC)cc3)cc12", "note": "(stereo unspecified)", "Potency": "inconclusive: 89.1 µM [inhibitor, partial curve, poor fit]"},
      {"smiles": "COCCO[C@H]1C(=O)N(C2CCNCC2)[C@H]1c1ccncc1", "Potency": "inactive"},
      {"smiles": "O=C(NC1CCN(Cc2cccc(-c3cccs3)c2)CC1)c1ccncc1", "Potency": "inconclusive: 50.1 µM [inhibitor, partial curve, poor fit]"},
      {"smiles": "Cn1ncc2c(C(=O)NCc3ccc(F)cc3)cc(-c3ccc(F)cc3)nc21", "Potency": "inconclusive: 12.6 µM [inhibitor, full curve, poor fit]"},
      {"smiles": "CC1(C)CC2CC(C)(CN2C(=O)CC(c2ccccc2Cl)c2c[nH]c3ccccc23)C1", "note": "(stereo unspecified)", "Potency": "inconclusive: 31.6 µM [inhibitor, full curve, poor fit]"},
      {"smiles": "COc1ccc(CN2C(=O)CO[C@H](c3ccc(NC(=O)c4ccc(OC)cc4)cc3)[C@H]2CO)cc1", "Potency": "inconclusive: 56.2 µM [inhibitor, partial curve, poor fit]"},
      {"smiles": "COCCn1c(C)cc(C(=O)N2CCC3(CC2)CC(O)CCO3)c1C", "note": "(stereo unspecified)", "Potency": "inactive"},
      {"smiles": "COc1cccc(CN2C[C@@H]3C(=O)N(CCN4CCc5ccccc5C4)C(=O)[C@@H]3C2)c1", "Potency": "inactive"},
      {"smiles": "COc1ccccc1-c1cccc(CN2CCCC(C(=O)NCc3ccc(F)cc3)C2)c1", "note": "(stereo unspecified)", "Potency": "active: 31.6 µM"},
      {"smiles": "CC(C)NC(=O)N[C@H]1CCN2C(=O)c3cc(-c4cccc(C(F)(F)F)c4)ccc3NC(=O)[C@H]12", "Potency": "inconclusive: 79.4 µM [inhibitor, partial curve, poor fit]"},
      {"smiles": "O=C(NCC12CCC=C1N(CC1CC1)C(=O)CC2)c1nccc2ccccc12", "note": "(stereo unspecified)", "Potency": "inactive"},
      {"smiles": "COc1ccc(S(=O)(=O)N2CCOC[C@H](Oc3ccc(C(F)(F)F)cc3)C2)cc1", "Potency": "inconclusive: 44.7 µM [inhibitor, full curve]"},
      {"smiles": "Cn1ccnc1-c1cn(CC2(c3ccccc3F)CCCC2)nn1", "Potency": "inconclusive: 50.1 µM [inhibitor, partial curve, poor fit]"},
      {"smiles": "Oc1ccc(CN2CC(CNc3ccccc3)C3(C2)CN(c2ccccc2)C3)cc1", "note": "(stereo unspecified)", "Potency": "active: 25.1 µM"},
      {"smiles": "Cc1ccccc1C(=O)N1CC(N2C(=O)c3c(c(C)nn3-c3ccccc3)C2C)C1", "note": "(stereo unspecified)", "Potency": "inconclusive: 70.8 µM [inhibitor, partial curve, poor fit] and inconclusive: 50.1 µM [inhibitor, partial curve, poor fit]"},
      {"smiles": "N#Cc1cccc(CN2CCc3c(n(Cc4cccnc4)n(CCc4ccccc4)c3=O)C2)c1", "Potency": "inconclusive: 39.8 µM [inhibitor, partial curve, poor fit]"},
      {"smiles": "COc1ccc(Nc2cc3c(cn2)CN(C)CCN3)cc1OC", "Potency": "inconclusive: 100 µM [inhibitor, single point]"},
      {"smiles": "COc1ccc(CN2CC3(C2)C(=O)N(Cc2cccc(Cl)c2)C(=O)[C@@H]2C[C@@H](O)CN23)c2ccccc12", "Potency": "inconclusive: 79.4 µM [inhibitor, partial curve, poor fit]"},
      {"smiles": "CC(C)C[C@@H]1N[C@H](C(=O)NC(C)C)Cc2cn(Cc3ccncc3)c3cccc1c23", "Potency": "active: 31.6 µM"},
      {"smiles": "CN(C)C(=O)N1CCC2(CC1)CN(C(=O)CCc1c[nH]c3ccccc13)Cc1ccccc1O2", "Potency": "inconclusive: 79.4 µM [inhibitor, single point]"},
      {"smiles": "C[C@@]12CC[C@H]3O[C@H](COc4ccccc4)OC[C@@]3(C)C1CC[C@@H](O)C2CC(=O)N1CCCC1", "note": "(stereo partly specified)", "Potency": "inconclusive: 28.2 µM [inhibitor, partial curve, poor fit]"},
      {"smiles": "COCCOc1ccc2c(n1)CCN(C(=O)c1cccc(OC)c1OC)C2", "Potency": "inactive"},
      {"smiles": "Cc1cn2nc(C(=O)NCc3ccc(C(F)(F)F)cc3)cc2c(N2CCCC2)n1", "Potency": "inconclusive: 44.7 µM [inhibitor, partial curve, poor fit]"},
      {"smiles": "CN1CC2(CCN(C(=O)CCCc3ccccc3)CC2)CC1C(=O)N1CCOCC1", "note": "(stereo unspecified)", "Potency": "inactive"},
      {"smiles": "CN1c2cc(C(=O)Nc3ccc(Cl)c(Cl)c3)ccc2C(=O)N2CCCCC21", "note": "(stereo unspecified)", "Potency": "inactive"},
      {"smiles": "Cc1cccc(-c2noc([C@@H]3Cc4nc[nH]c4CN3C(=O)NC(C)C)n2)c1", "Potency": "inconclusive: 89.1 µM [inhibitor, partial curve]"},
      {"smiles": "C=CCC(=O)N1CCCC(N2CCN(c3cccc(C(F)(F)F)c3)CC2)C1", "note": "(stereo unspecified)", "Potency": "inconclusive: 50.1 µM [inhibitor, partial curve, poor fit]"},
      {"smiles": "Cc1ccccc1C(=O)NCCn1cccc1-c1nc(-c2ccc3c(c2)OCO3)no1", "Potency": "inconclusive: 35.5 µM [inhibitor, partial curve, poor fit]"},
      {"smiles": "COc1ccc(-c2noc(-c3cccn3CC(=O)Nc3ccccc3C)n2)cc1F", "Potency": "inactive"},
      {"smiles": "OCC1(CN2CCCC2)CCN(Cc2ccc(Cl)cc2)CC1", "Potency": "inconclusive: 63.1 µM [inhibitor, partial curve, poor fit]"},
      {"smiles": "Oc1ccccc1CN1CCNc2cc(Nc3ccccc3)ncc2C1", "Potency": "active: 31.6 µM"},
      {"smiles": "O=C(NCCc1cnc[nH]1)c1cc(-c2ccccc2F)cc2c1OCCN2Cc1cccnc1", "Potency": "inconclusive: 44.7 µM [inhibitor, partial curve, poor fit]"},
      {"smiles": "Cc1ccc(-n2c(C3CCN(C(=O)c4ccc5cc[nH]c5c4)CC3)n[nH]c2=O)cc1", "Potency": "active: 31.6 µM"},
      {"smiles": "O=[S+]([O-])(CCC(F)(F)F)N1CCCN(c2ccc3nnc(-c4ccccc4)n3n2)CC1", "Potency": "inconclusive: 39.8 µM [inhibitor, partial curve]"},
      {"smiles": "COc1ccc(N2CCN(C3CCCN(C(=O)C(C)(C)N)C3)CC2)cc1", "note": "(stereo unspecified)", "Potency": "inactive"},
      {"smiles": "COc1ccccc1-c1cccc(CN2CCCC(C(=O)NC(C)C)C2)c1", "note": "(stereo unspecified)", "Potency": "active: 39.8 µM"},
      {"smiles": "O=C1CO[C@H]2CCN(Cc3ccncc3Cl)CC[C@@H]2N1c1ccccc1", "Potency": "active: 79.4 µM"},
      {"smiles": "COc1ccc(-c2cc(N3CCCC(NC(=O)c4cccc(C)c4)C3)n[nH]2)cc1", "note": "(stereo unspecified)", "Potency": "inconclusive: 44.7 µM [inhibitor, partial curve, poor fit]"},
      {"smiles": "O=C1OCC2(CCN(Cc3ccc4c(c3)CCO4)C2)N1Cc1ccccc1", "note": "(stereo unspecified)", "Potency": "inconclusive: 31.6 µM [inhibitor, partial curve, poor fit]"}
    ]}
  ]
}
